Measured values published in PubChem BioAssay AID493208 (National Center for Advancing Translational Sciences (NCATS), 2011).
About 340 (0.77%) of roughly 44,000 compounds were called active. Another 5% or so got no clear call; they are omitted. Calls follow the shape of the dose curve; as a rule, active = well fitted inhibition curve with a large enough effect; inconclusive = small, poorly fitted or top-dose-only effect; inactive = flat fitted curve, though single readings scatter. This is one part of the list.

Test: Acumen qHTS Assay for Inhibitors of the mTORC1 Signaling Pathway in MEF (Tsc2-/-, p53-/-) Cells: Sytravon;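 also: plate controls were DMSO for no effect and rapamycin for full effect; nearly all actives have a fitted effect of over 50% in size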
Conditions: phospho-rpS6 immunofluorescence/PI, 24 h; series mostly up to 38.3 µM; activity change, negative = inhibition: at the top concentration
Method in brief: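 Immunofluorescence of rpS6 phosphorylation in Tsc2-/-, p53-/- MEFs after 24 h compound exposure, normalized to propidium iodide signal. Activity is expressed as % positive cells, thresholded with 7.5 nM rapamycin.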

Activity change, negative = inhibition, inactive:
COc1ccc(OC)c(CNC(=O)CCCn2ccc3cc(S(=O)(=O)N4CCCC4)ccc32)c1 -14.3%, CCCc1cc(=O)[nH]c(Nc2ccc(C(=O)O)cc2)n1 -3.82%, CCOc1ccc(CCNC(=O)CCCn2nc(C)c3sc4ccccc4c3c2=O)cc1OCC 0.279%, O=C(CSc1nccn1-c1ccccc1)Nc1nc2ccccc2s1 -9.34%, CCOc1ccc(CNC(=O)CCC(=O)N2CC(C)Sc3ccccc32)cc1 (stereo not drawn) 0.613%, COC(=O)CC1c2cc(OC)c(OC)cc2CCN1C(=O)Nc1ccc(C)cc1Cl (stereo not drawn) 0%, COc1ccccc1Nc1nn2c(=O)c3ccc(C(=O)NCCCOC(C)C)cc3nc2s1 -10.7%, CCn1c2ccccc2c2nnc(SCCN3CCCCC3)nc21 -11.8%, N#C/C(=C/c1cn(Cc2ccc(F)cc2)c2ccccc12)C(=O)Nc1cccc(Cl)c1 9.87%, CCc1ccc(CNC(=O)c2cccc(-n3cnc4cccnc43)c2C)cc1 -10.2%, CCOc1ccc(OCC)c(NC(=O)Cn2ncc3c4ccccc4n(Cc4ccccc4)c3c2=O)c1 0.128%, Cn1ccc2cc(S(=O)(=O)N3CCCN(C(=O)Nc4ccccc4Br)CC3)ccc21 -7.39%, CCC1CN(C(=O)N2CCC(C(=O)NCCN(C)C)CC2)c2ccccc2O1 (stereo not drawn) 7.64%, Cc1ccc(NC(=O)c2cnc(SCC(=O)N3CCOCC3)n(C)c2=O)cc1 -15.6%, COc1cccc(NC(=O)CN(C)S(=O)(=O)c2ccc3nc(C)sc3c2)c1 1.6%, COc1ccc(C)cc1N(C)C(=O)c1c(C)oc2ncnc(N3CCOCC3)c12 -3.81%, CN(c1ccc(Cl)cc1)S(=O)(=O)c1nnc(NC(=O)C2CCCCC2)s1 5.79%, COc1cc(C(=O)Oc2c(Sc3ccc(C)cc3)c(C)nn2-c2ccccc2)cc(OC)c1OC 26.6%, CCOc1ccccc1NC(=O)c1c(NC(=O)c2ccccc2C)sc2c1CCC(C)C2 (stereo not drawn) 0.727%, CCNC(=O)c1cnc2sc(N3CCCCCC3)nn2c1=O 1.54%, COC(=O)c1c(C)sc(-c2c(-c3ccc4c(c3)OCCO4)[nH]c3c2c(=O)n(C)c(=O)n3C)c1O -1.12%, O=C(NCCc1ccc(Cl)cc1)c1ccc(CS(=O)Cc2cccc(Cl)c2)o1 (stereo not drawn) -9.16%, CCC(C)NC(=O)c1cnn(-c2ccc(Cl)cc2)c1C1CCN(C(=O)OC(C)(C)C)CC1 (stereo not drawn) -5.4%, COC(=O)c1n[nH]n(-c2ccccc2)c1=O -0.156%, Nc1nnc(SCC(=O)Nc2ccccc2C(F)(F)F)s1 -21.5%, Cc1cccc(NC(=O)C2CCCN(S(=O)(=O)c3cnc[nH]3)C2)c1C (stereo not drawn) 1.68%, CN(C1CCCCC1)S(=O)(=O)c1ccc2c(c1)c(=O)c(C(=O)NCCc1ccccc1)cn2C 0.916%, Cn1c(=O)c2cc(C(=O)N3CCN(c4ccc(Cl)cc4)CC3)sc2c2ccccc21 0.391%, CCOC(=O)c1cc(NC(=O)c2ccc(F)cc2)c(=O)n2c1oc1ccccc12 -2.2%, Cc1oc(-c2ccc(C(=O)Nc3cc(F)ccc3F)cc2)nc1COc1ccccc1 -5.97%, CCNC(=O)Cc1ccc(NC(=O)N2CCCCc3ccccc32)cc1 -3.23%, CCN(CC)c1nn2c(=O)c(C(=O)NCc3ccc(F)cc3)cnc2s1 2.88%, CCCn1c2ccccc2c2cnn(CC(=O)NCCc3ccc(OC)cc3OC)c(=O)c21 -9.56%, Cc1nc(-c2ccccc2)sc1CCNS(=O)(=O)c1ccc(Br)cc1 -14.1%, CCn1nc(C)c(CCN(C)C(=O)Nc2cc(Cl)ccc2C)c1C 9.8%, COc1ccc(CC(=O)NCCc2csc(-c3ccc(Cl)cc3)n2)cc1 -6.42%, O=C(Nc1ccc(Cl)cc1)N1CCN(c2ccc3nnc(-c4ccc(F)cc4)n3n2)CC1 -6.37%, Cc1ccc(-n2nc(CO)c(C(=O)NCc3cccs3)n2)cc1 3.92%, COc1ccccc1CCNC(=O)C(=O)NCC(c1ccco1)S(=O)(=O)c1ccc(C)cc1 (stereo not drawn) -14%, Cc1cc(NC(=O)Nc2nc3c(s2)CCCCCC3)ccc1Br -2.38%, CCCCn1c(CNC(=O)c2ccc(OC)cc2)nnc1SCC(=O)Nc1ccc(OC)cc1 -0.734%, Cc1ccc(NCc2nc3ccccc3n2CCOc2ccccc2)cc1 -0.415%, COc1ccccc1Nc1cc(C(=O)NCc2cccs2)c2ccccc2n1 1.32%, CCC(=O)N1CCc2cc(S(=O)(=O)CCC(=O)NCc3ccccc3OC)ccc21 -1.73%, COc1ccc2nc3oc(C(=O)NCc4ccccc4OC)cc3cc2c1 -2.77%, NC(=O)CSc1ncc2c(n1)-c1ccccc1N(Cc1cccc(F)c1)S2(=O)=O -5.91%, COc1ccc(-c2noc(-c3nnn(-c4cc(C)ccc4C)c3N)n2)cc1 -5.02%, COc1ccccc1-c1nnc(C2CCN(C(=O)c3ccc(C)cc3)CC2)o1 10.1%, CC1(C)CC(=O)c2c(oc3c(Cl)cc(NS(=O)(=O)c4ccc(Cl)cc4)cc23)C1 -5.72%, Cc1ccc(-c2nc(CS(=O)CC(=O)N3CCN(c4ccc(Cl)cc4)CC3)c(C)o2)cc1 (stereo not drawn) -12.9%, CN(C)S(=O)(=O)c1ccc2c(c1)N(CC(=O)N1CCN(c3ccc(F)cc3)CC1)CCS2 0.8%, CC1CCN(c2ccc(-c3nc(C(C)C)no3)cc2[N+](=O)[O-])CC1 0.411%, Cc1ccc(-n2ncc(C(=O)NCCc3ccsc3)c2C2CCN(C(=O)OC(C)(C)C)CC2)cc1C 6.51%, Cc1nc2ccccc2c(=O)n1-c1ccc(NC(=O)C(F)(F)F)cc1 0.777%, Cc1cc(NC(=O)CSc2ncc(C(=O)Nc3ccc(F)cc3)c(=O)n2C)no1 0.223%, O=C(CC(NCc1cccnc1)C(=O)O)Nc1ccc(F)cc1 (stereo not drawn) 2.97%, O=c1oc2ccc(Br)cc2cc1-c1csc(-c2ccc(Cl)cc2)n1 -1.16%, C=Cc1ccc(Cn2c(C(=O)O)c(CNCc3cc(Br)ccc3OC)c3ccc(C)cc32)cc1 -0.717%, Cc1cccc(N2CCN(C(=O)CS(=O)(=O)c3cccc4nsnc34)CC2C)c1 (stereo not drawn) -9.21%, CCCN1C(=O)C2(c3ccccc31)c1c(oc3ccccc3c1=O)C(=O)N2CCO (stereo not drawn) 2.78%, CC(C)(C)OC(=O)N1CCC(c2c(C(=O)N3CCCCC3)cnn2-c2ccccc2Cl)CC1 3.39%, Cn1c(=O)oc2cc(S(=O)(=O)CCC(=O)NCCc3ccc(Cl)cc3)ccc21 -10.6%, COc1ccc(NCc2cc3cc4c(cc3n(CC(=O)Nc3ccc(C)c(C)c3)c2=O)OCO4)cc1 -6.59%
